PubChem BioAssay AID2546 (National Center for Advancing Translational Sciences (NCATS), 2010)
The whole screen tested about 310,000 compounds, of which about 11,000 (3.5%) were called active. Inconclusive results, whose numbers are uncertain, are shown with a selection of clear calls. Calls come from the whole dose curve; as a rule, active = well fitted inhibition curve with a large enough effect; inconclusive = small, poorly fitted or top-dose-only effect, or effect the other way; inactive = flat fitted curve, though single readings scatter. Potencies of inconclusive entries are left out as doubtful fits.

test: VP16 counterscreen qHTS for inhibitors of ROR gamma transcriptional activity; conditions: Drosophila S2 Gal4-VP16 UAS-luciferase, luminescence, 20 h; activity, negative = inhibition: at 53.6 µM (top of the series);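 note: Gal4-VP16 expression switched on by copper sulfate through the metallothionein promoter; nearly all actives have a fitted effect of over 50% in size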
% is set by controls: 0 for no effect and ±100 for the full control effect; potency is the fitted concentration of half-maximal effect; tags give direction and shape of the fitted curve.

SMILES	Potency	activity, negative = inhibition
CCN1CCc2c(sc(NC(=O)c3ccc(S(=O)(=O)N(CC)c4ccccc4)cc3)c2C(N)=O)C1	inconclusive [inhibitor, single point]	
NC(=O)C1CCN(C(=O)c2ccc3nc(-c4ccccc4)c(-c4ccccc4)nc3c2)CC1	inactive	
O=C(CSc1nnc(NC(=O)c2ccc(F)cc2)s1)NC1CC1	inconclusive [inhibitor, full curve]	
CCOC(=O)C1(C)NC(c2ccco2)C2C(=O)N(c3ccccc3)C(=O)C21 (centres undefined)	inconclusive [inhibitor, single point]	
COCCCn1c(SCC(=O)Nc2ccc(C)cc2)nc2ccccc2c1=O	inactive	
CCCOC(=O)c1cccc(NC(=O)COc2ccc([N+](=O)[O-])cc2)c1	inconclusive [inhibitor, partial curve]	
COc1ccc(NS(=O)(=O)c2cccc(NC(=O)CCC(=O)c3ccc(Cl)cc3)c2)cc1	inconclusive [inhibitor, single point]	
CC(C)(C)c1ccc(/C=C/C(=O)Nc2ccc3c(c2)OCCO3)cc1	inconclusive [inhibitor, single point]	
CCOc1ccc(NC(=S)N(CCOC)C(C)c2ccco2)cc1 (centres undefined)	inconclusive [inhibitor, single point]	
Cc1cc(C)c(NC(=O)CSc2nc3c(c(=O)n2C)SC(C)C3)c(C)c1 (centres undefined)	inconclusive [inhibitor, single point]	
O=C(Nc1nc2ccccc2n1CCN1CCCC1)C1CCCCC1	active: 10 µM	
CCc1ccc(-c2ccc(SCC(=O)Nc3nnc(C)s3)nn2)cc1	inconclusive [inhibitor, single point]	
O=C(Nc1ccc2oc(-c3ccccc3F)nc2c1)c1ccco1	inconclusive [activator, full curve]	
CCOC(=O)c1cc2[nH]c3ccccc3c2[n+](-c2ccc([N+](=O)[O-])cc2)c1C	inconclusive [activator, single point]	
Cc1ccc(OCc2cc(C(=O)NCCc3cccnc3)no2)cc1C	inactive	
O=[N+]([O-])c1cc(-c2nc3nc4ccccc4nc3n2CCc2ccccc2)cc([N+](=O)[O-])c1	inconclusive [inhibitor, full curve, poor fit]	
COCCCN(C(=S)Nc1c(C)cc(C)cc1C)C(C)c1ccncc1 (centres undefined)	inconclusive [activator, single point]	
CN(C)c1ncc2nc(-c3ccccc3)c(=O)n(C[C@H]3CCCO3)c2n1	inactive	
CC1CCN(C(=S)NCCc2ccccc2)CC1	inconclusive [inhibitor, single point]	
COc1ccc(OCc2nnc(SCC(=O)NC3CCCCC3)o2)cc1	inconclusive [activator, partial curve]	
COc1ccc(C2CC(c3ccccc3)n3nc(NC(=O)c4cccs4)nc3N2)cc1 (centres undefined)	active: 5.01 µM	
CC1(C)Oc2ccc3ccc(=O)oc3c2/C(=C/Nc2cccc(O)c2)C1=O	inconclusive [inhibitor, single point]	
CCCOc1ccc(C(=O)C(CCC(CNCC)C(=O)c2ccc(OCCC)cc2)CNCC)cc1 (centres undefined)	inconclusive [inhibitor, single point]	
CC(CNCC1CCCO1)COc1ccccc1 (centres undefined)	inactive	
Cc1ccc(NC(=O)c2cn(CCC#N)nc2-c2cccs2)c([N+](=O)[O-])c1	inactive	

SMILES	Potency	activity, negative = inhibition
CCCCCSc1nc2c(cnn2-c2ccc(F)cc2)c(=O)[nH]1	inactive	
O=C(Nc1ccccc1)c1ccc(NCC2CCCO2)c(S(=O)(=O)N2CCOCC2)c1 (centres undefined)	inconclusive [inhibitor, partial curve]	
Cc1c(C(C)C)c(=O)n(-c2ccc(S(=O)(=O)NC3CCCCC3)cc2)n1C	active: 11.2 µM	
CCOc1cccc(/C=N/Nc2ccc(S(=O)(=O)N(CC)CC)cn2)c1O	active: 3.16 µM	
CCOC(=O)c1nc(N/N=C/c2ccccc2)sc1Br	inconclusive [inhibitor, single point]	
Cc1nc2ccccc2n1CC(O)COc1ccccc1Cl (centres undefined)	active: 17.8 µM	
COc1ccc(CN=C(Nc2ccccc2)SC2CC(=O)NC2=O)cc1 (centres undefined)	inactive	
N#CC1=C(N)N2C(=C(C#N)C1c1ccc(Br)cc1)Nc1ccccc12 (centres undefined)	active: 11.2 µM	
CC(C)c1ccc2[nH]c3nc(SCC(=O)N4CCOCC4)nnc3c2c1	inactive	
Brc1c(Br)c(Br)c2[nH]cnc2c1Br	inconclusive [inhibitor, single point]	
Cn1ccnc1C(O)(c1nnc(-c2ccccc2)o1)C(F)(F)F (centres undefined)	inconclusive [inhibitor, single point]	
O=C(O)c1cccnc1SC1CC(=O)N(c2cccc(C(F)(F)F)c2)C1=O (centres undefined)	inactive	
S=C(NCc1ccc(Cl)cc1)Nc1ccncc1	active: 7.08 µM	
CCOc1ccccc1NC(=S)Nc1ccccc1F	inconclusive [inhibitor, single point]	
Cc1ccc(-c2nn(-c3ccccc3)cc2CSC(=N)N)cc1	inconclusive [inhibitor, single point]	
CC(C)c1ccc(C2NC(=O)NC3=C2CCc2ccccc23)cc1 (centres undefined)	inactive	
O=C(NC1CCCCC1)c1ccccc1NC(=O)C1CC1	inactive	
COc1ccc(NC(=O)COc2ccccc2Cc2ccccc2)cc1S(N)(=O)=O	inconclusive [inhibitor, single point]	
COCCN(C(=S)Nc1cc(C)cc(C)c1)C(C)c1ccco1 (centres undefined)		inactive: 4.06% [at 10 µM]
N#CC1=C(N)C(C#N)(C#N)C(c2cccnc2)C2CC(c3ccccc3)CC=C12 (centres undefined)	active: 17.8 µM	
C=CCOC(=O)C1=C[C@H](c2ccc(C(F)(F)F)cc2)[C@@H](CCCO)[C@H](OCC)O1	inconclusive [inhibitor, partial curve, poor fit]	
Clc1ccc(-c2nc3ccccn3c2CN2CCOCC2)cc1	inactive	
CCOc1ccc(NS(=O)(=O)c2ccc(SC)cc2)cc1	inconclusive [inhibitor, single point]	
C/C(=N\Nc1ccccc1)c1cccc(N)c1	inconclusive [activator, single point]	
Cc1cc(C)nc(SCC(=O)Nc2ccc(S(=O)(=O)Nc3ncccn3)cc2)n1	inconclusive [inhibitor, single point]	

SMILES	Potency	activity, negative = inhibition
CCOC(=O)Cn1ccc(NC(=O)COc2ccc(F)cc2F)n1	inactive	
O=C(N/N=C/c1ccccn1)c1cccc(S(=O)(=O)Nc2ccccc2Cl)c1	inconclusive [inhibitor, single point]	
CCn1c(O)c(C=Nc2ccccc2)n(-c2ccccc2)c1=S	inconclusive [inhibitor, single point]	
O=C(NC12CC3CC(CC(C3)C1)C2)c1ccc([N+](=O)[O-])o1	inconclusive [inhibitor, single point]	
O=C1Nc2ccccc2/C1=N\N=C\c1ccc(O)c(O)c1	inconclusive [inhibitor, single point]	
Cc1c(Cl)cccc1NC(=S)N1CCN(Cc2ccc3c(c2)OCO3)CC1	active: 14.1 µM	
CCC1CCCCN1S(=O)(=O)c1ccc(C(=O)Nc2nnc(-c3cccs3)o2)cc1 (centres undefined)	active: 0.316 µM	
CCC(C)NC(=O)Cn1c(COc2ccc(Cl)cc2Cl)nc2ccccc21 (centres undefined)	inconclusive [activator, full curve, poor fit]	
CCC/C=N/Nc1nc2ccccc2s1	inconclusive [inhibitor, single point]	
CCNC(=S)N/N=C(\C)c1ccc(N2CCOCC2)cc1	active: 3.55 µM	
CC(C)Cc1nnc(NC(=O)CCC(=O)NCc2ccccc2Cl)s1	inactive	
CCOc1ccc2nc(NC(=O)CSc3ccc(Cl)cc3)sc2c1	inconclusive [inhibitor, partial curve]	
O=C(Nc1ccc2ncccc2c1)c1cccc(Br)c1	inactive	
Cc1ccc2c(c1)COc1c3ccc(C(=O)N[C@@H](C)CO)cc3nn1-2	inconclusive [inhibitor, partial curve, poor fit]	
CCOCCCNC(=S)N1CCN(c2nc(-c3ccc(F)cc3)cs2)CC1	inconclusive [inhibitor, single point]	
OCC1(Cc2ccc(F)cc2)CCCN(CCCC(F)(F)F)C1 (centres undefined)	inactive	
CN(C)NC(=S)NC1CC2CCC1C2 (centres undefined)	active: 12.6 µM	
COc1ccccc1CNC(=O)COc1ccccc1C	inconclusive [activator, single point]	
CCNC(=S)NNC(=O)c1c(Cl)c(C)nn1C	inconclusive [inhibitor, partial curve]	
COC(=O)c1ccccc1NC(=O)CCC(=O)N1CCSc2ccccc21	inconclusive [inhibitor, single point]	
Oc1ccc2ccccc2c1/C=N/Nc1ccccc1	inconclusive [inhibitor, single point]	
N#CCSc1ccc2nc(-c3ccccc3)cn2n1	inconclusive [inhibitor, full curve]	
C/C(=N/NC(=O)c1cc(-c2cccc([N+](=O)[O-])c2)n[nH]1)c1ccc(Cl)cc1	inconclusive [inhibitor, single point]	
Cc1cccc(N2CCN(C(=O)CCCSc3nc4ccccc4[nH]3)CC2)c1C	active: 22.4 µM	
